The text below walks through data of paper PMC10668032.

The other results are listed elsewhere or left out. At the low end of the ranking the order means little.

The target of the assay is SIX1-Q177R homeodomain (UniProt Q15475). Put plainly: universal protein binding microarray. As to conditions: Universal all-10-mer PBM (8x60K, AMADID 030236), 300 nM GST-tagged protein, Alexa Fluor 488 anti-GST; buffer, salt, pH and temperature not stated; high values mean tight binding; most listed sequences are background and not binding sites; double strand, one strand shown.
Consider AATAGAAT, for which the binding signal is -0.341 E-score.

Consider CGCGTGCA, for which the binding signal is 0.00666 E-score.

In the case of CTAACCAG, the binding signal was determined as 0.0712 E-score.

Consider ACATCTGA, for which the binding signal is -0.0519 E-score.

For CCTTCAGA, the binding signal is -0.0779 E-score.

In the case of CCCCAGAA, the binding signal came to 0.137 E-score.

For ATCGCTGC, the binding signal was -0.147 E-score.

As to ACTCTACA, the binding signal came to 0.296 E-score.

On to ATCCTCAC, for which the binding signal came out at 0.00347 E-score.

For CAAGCTCC, the binding signal is -0.142 E-score.

Regarding ACTAACCA, the binding signal was determined as 0.0953 E-score.

Regarding TGCCCGCA, the binding signal was -0.0887 E-score.

GTTCAAAA: the binding signal is -0.113 E-score.

Regarding ATAGTTTG, the binding signal was found to be 0.0043 E-score.

Turning to CAGATGCG, the binding signal is -0.263 E-score.

For GCCAGGGA, the binding signal is -0.158 E-score.

For CGGCAACA, the binding signal worked out at 0.0343 E-score.

Turning to GAAAAATC, the binding signal is -0.164 E-score.

In the case of ATAATGGA, the binding signal was -0.154 E-score.

For ATTTCAAG, the binding signal was -0.168 E-score.

Regarding TATAGAGA, the binding signal is -0.138 E-score.

With AGATACCG, the binding signal came to 0.139 E-score.

As for CATCAGGC, the binding signal was -0.13 E-score.

Regarding CGCTCTAC, the binding signal came to 0.157 E-score.

On to CAGAAGGA, for which the binding signal is -0.0839 E-score.

For the sequence AGCATTTC, the binding signal was -0.18 E-score.

CATATCGG: the binding signal was -0.0523 E-score.

Take ACTGTATG: the binding signal is -0.0846 E-score.

Consider GGAATTAA, for which the binding signal stood at 0.0603 E-score.

As to CGTTAGAA, the binding signal was -0.147 E-score.

As to CAGGTAAC, the binding signal turned out to be 0.0387 E-score.

For the sequence CCGTGCCA, the binding signal was 0.0532 E-score.

As to CACAGTTC, the binding signal was 0.108 E-score.

For CAGATTAC, the binding signal was determined as 0.0021 E-score.

As to ACGGAGAT, the binding signal was -0.0927 E-score.

On to CTCTAACA, for which the binding signal was 0.094 E-score.

On to AGAGAAGG, for which the binding signal was -0.136 E-score.

Turning to GAGAGTGA, the binding signal was -0.246 E-score.

For ATCCAAAC, the binding signal turned out to be 0.011 E-score.

As to ATTTATCC, the binding signal is 0.000225 E-score.

On to CTCAGGAA, for which the binding signal is -0.128 E-score.

For AATGTGCT, the binding signal was -0.249 E-score.

On to AGTTCCAA, for which the binding signal is -0.182 E-score.

Take ACTTGGGC: the binding signal was -0.271 E-score.

Turning to CCGCCCAG, the binding signal was 0.165 E-score.

For AAGGCTTG, the binding signal was -0.281 E-score.

Consider CTACCGAA, for which the binding signal is -0.0994 E-score.

Turning to CAATGAAC, the binding signal came out at 0.0616 E-score.

In the case of ATACATAC, the binding signal came out at 0.139 E-score.

Take GCGAGTGA: the binding signal is -0.0991 E-score.

For AGCGACGG, the binding signal worked out at 0.0201 E-score.

AACAGGGC: the binding signal is -0.246 E-score.

With CAAAGTAC, the binding signal was -0.0414 E-score.

As for GCATCGAC, the binding signal is -0.0519 E-score.

Consider CGCCCAAG, for which the binding signal came out at 0.0949 E-score.

For the sequence CTGTAGTC, the binding signal was -0.153 E-score.

CGATCCAA: the binding signal was -0.0315 E-score.

On to CGCCGGAG, for which the binding signal was 0.0618 E-score.

As for GAGCCCCA, the binding signal was -0.0131 E-score.

Regarding GACCAGAA, the binding signal is -0.00466 E-score.

For the sequence CCGCCTGA, the binding signal is 0.131 E-score.

Consider AGATGGAA, for which the binding signal was -0.124 E-score.

Turning to ATATAATA, the binding signal is -0.147 E-score.

On to CGCTGGGC, for which the binding signal was determined as 0.04 E-score.

Take ATCCGAAT: the binding signal was -0.0752 E-score.

With CCATTGAC, the binding signal stood at 0.0458 E-score.

With CATCTTAC, the binding signal was -0.0989 E-score.

Regarding TAAGCCTA, the binding signal was -0.154 E-score.

In the case of ACGGGCTG, the binding signal was -0.0589 E-score.

Turning to GACGCGCA, the binding signal is -0.101 E-score.

Regarding ATTATCGA, the binding signal is -0.0214 E-score.

Turning to GACGACAC, the binding signal was found to be 0.429 E-score.

CACCTACA: the binding signal stood at 0.41 E-score.

As for ATAAAAAT, the binding signal is -0.0813 E-score.

With AATGACGT, the binding signal is -0.06 E-score.

Regarding AGGCGAGG, the binding signal was -0.0664 E-score.

In the case of ACGACCGC, the binding signal is -0.0834 E-score.

In the case of ATAATAAT, the binding signal is -0.105 E-score.

With AAAGTGCC, the binding signal is -0.0989 E-score.

For TAGTCCAA, the binding signal is -0.0607 E-score.

As for TACTCAGA, the binding signal was -0.109 E-score.

Consider CATCTGAA, for which the binding signal is -0.131 E-score.

As for GGGCACAA, the binding signal worked out at 0.0725 E-score.

GGTCGTCA: the binding signal was -0.113 E-score.

For the sequence AGGGCGAT, the binding signal was -0.0825 E-score.

As to GAGTACTC, the binding signal came out at 0.174 E-score.

As to CGCAGAGA, the binding signal was -0.0242 E-score.

For the sequence TACAGGAA, the binding signal worked out at 0.0366 E-score.

With CGCATTTA, the binding signal is -0.169 E-score.

As to AACTCTCA, the binding signal was -0.2 E-score.

Take AGACGCCC: the binding signal turned out to be 0.121 E-score.

In the case of TCTGTCCA, the binding signal is -0.1 E-score.

For the sequence AATAATGG, the binding signal was -0.183 E-score.

With AAGCAAGT, the binding signal is -0.213 E-score.

Turning to ACGAGTGG, the binding signal was found to be 0.115 E-score.

As to ATGGAACC, the binding signal was -0.0911 E-score.

As to ATTGACGG, the binding signal was -0.148 E-score.

With AAGAGGAA, the binding signal was -0.238 E-score.

In the case of ACAGCAGG, the binding signal was -0.0423 E-score.

For TAAGGCGA, the binding signal was -0.0477 E-score.

For the sequence AGACCCTA, the binding signal came to 0.195 E-score.

In the case of GCGCGTAA, the binding signal was -0.0166 E-score.

Take ATCTGACC: the binding signal worked out at 0.00462 E-score.

As to ACGCAATA, the binding signal was determined as 0.117 E-score.

CGTGGCGA: the binding signal is -0.124 E-score.

AGTAAACG: the binding signal was found to be 0.0279 E-score.

For the sequence CGACCTGA, the binding signal is -0.118 E-score.

Take CTGCTATA: the binding signal is -0.00617 E-score.

Take CGGTTAAG: the binding signal was 0.00597 E-score.

For CGACAACG, the binding signal was -0.281 E-score.

Consider ACGTGGCA, for which the binding signal was -0.097 E-score.

Take GAGGTATA: the binding signal turned out to be 0.18 E-score.

On to AGCGCGCA, for which the binding signal was -0.0902 E-score.

Turning to GCGGCTAA, the binding signal was -0.0814 E-score.

Take ACTTTCGG: the binding signal is -0.0985 E-score.

Take GTGTTGAA: the binding signal amounted to 0.396 E-score.

On to AACACTGA, for which the binding signal turned out to be 0.35 E-score.

Regarding AGACTAAC, the binding signal is -0.206 E-score.

With AAGAATTG, the binding signal was -0.297 E-score.

Consider AATTCTAT, for which the binding signal is -0.229 E-score.

Turning to AACGCACG, the binding signal was -0.116 E-score.

As for GCGCGTAC, the binding signal worked out at 0.0558 E-score.

Regarding GACTACGC, the binding signal was -0.0927 E-score.

Turning to ACATGTGA, the binding signal was -0.252 E-score.

As to ATTATCTG, the binding signal is -0.193 E-score.

As to AATTTTCT, the binding signal was -0.155 E-score.

For the sequence ATTCCTTA, the binding signal was -0.183 E-score.

Take TGCGAAAA: the binding signal came to 0.0459 E-score.

In the case of GGAAACCC, the binding signal came to 0.011 E-score.

For the sequence CGTGGAAG, the binding signal is -0.0551 E-score.

Take CGTCGATC: the binding signal was -0.0255 E-score.

Turning to CGCACCCA, the binding signal was 0.193 E-score.

For AAGGACTT, the binding signal is -0.0704 E-score.

Take GAAGTCGC: the binding signal is -0.0881 E-score.

Consider AAGGCACA, for which the binding signal was -0.111 E-score.

For the sequence CAAGTCTA, the binding signal was -0.15 E-score.

Turning to ACGATATC, the binding signal was -0.111 E-score.

For ACTCCTGA, the binding signal was 0.206 E-score.

For the sequence CCTCAAGC, the binding signal was -0.0163 E-score.

For GAAAAACC, the binding signal was -0.106 E-score.

On to ACCCCGAC, for which the binding signal is 0.265 E-score.

In the case of GAGCTGGA, the binding signal came to 0.0361 E-score.

Take TGCTTAAA: the binding signal was -0.109 E-score.

As for AAAACCGT, the binding signal is -0.0744 E-score.

As to AATCTCGC, the binding signal was -0.319 E-score.

Take TACGACTA: the binding signal is -0.07 E-score.

Take AAACTCGG: the binding signal was 0.119 E-score.

With AGTGCCGA, the binding signal is -0.188 E-score.

As for ATCGCGAA, the binding signal was -0.0326 E-score.

In the case of CGCCAGCA, the binding signal was -0.155 E-score.

For the sequence GAGTTTAA, the binding signal is 0.0842 E-score.

Consider TACCAGTA, for which the binding signal is 0.0235 E-score.

For GAGGATGA, the binding signal is -0.115 E-score.

On to ACGTGAGT, for which the binding signal is -0.0165 E-score.

CGATACAG: the binding signal was -0.0585 E-score.

Consider CTCAACAG, for which the binding signal is -0.167 E-score.

Regarding CAGGAGCC, the binding signal is -0.0536 E-score.

With GAGATCTC, the binding signal is -0.374 E-score.

On to GCTCGATA, for which the binding signal is -0.089 E-score.

As for CCTTGCCA, the binding signal was -0.133 E-score.

On to ACTGGGCG, for which the binding signal was determined as 0.192 E-score.

GGCTCCGA: the binding signal is -0.0309 E-score.

As for AGCATTAC, the binding signal is -0.00506 E-score.

For AACAGTCA, the binding signal was -0.259 E-score.

On to AGATAAAG, for which the binding signal is -0.0094 E-score.

Turning to CAATCATG, the binding signal was 0.0573 E-score.

Regarding TAGCGCTA, the binding signal is -0.143 E-score.

Take ACCCCGGA: the binding signal was 0.299 E-score.

ATTGGTAC: the binding signal is 0.0756 E-score.

Regarding CGGATCCA, the binding signal was found to be 0.232 E-score.

ATCTCTGA: the binding signal was 0.0129 E-score.

In the case of ATGTTTGC, the binding signal is -0.318 E-score.
